By IC50 is meant the dose at which the fit gives 50% viability; where the fit passes the top or lowest dose, that dose stands as a limit. The AUC spans the tested range (256-fold, ending at the top dose) of the same fit; values near 1 show little effect. The top dose, if marked as inferred, comes from the curve model; the source does not state it. Some results are limits rather than exact numbers.

Compound in this assay: CC1=C(C(=O)Nc2cc3cn[nH]c3cc2F)C(c2ccc(C(F)(F)F)cc2)CC(=O)N1 [GSK429286A]
Briefly: Viability of human cancer cell lines after 72 h of drug (GDSC screen). Particulars: top dose inferred. The method, then:
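Human cancer cell lines in 384-well plates, medium with 10% serum, drug for 72 h over a 256-fold dose range (nine 2-fold or five 4-fold steps up to the top dose). Adherent lines were fixed and stained with the nucleic acid dye Syto60, suspension lines read with resazurin; signal relative to control wells, capped at 0 and 100%. One two-parameter sigmoid per drug and line, fitted in a mixed model over all curves with the slope shared within a line.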
For “RCC-JW (kidney, adherent, top dose 20 µM)”, the AUC is 0.916 and the IC50 was greater than 20 µM.

For “RCC-MF (kidney, adherent, top dose 20 µM)”, the AUC came out at 0.968 and the IC50 was greater than 20 µM.

Turning to “RCM-1 (large intestine, adherent, top dose 20 µM)”, the AUC came out at 0.982 and the IC50 was greater than 20 µM.

For the cell line “RD (rhabdomyosarcoma, adherent, top dose 20 µM)”, the AUC was 0.976 and the IC50 is greater than 20 µM.

In the case of “REH (B-cell leukaemia, suspension, top dose 20 µM)”, the AUC came to 0.972 and the IC50 was greater than 20 µM.

For “RERF-GC-1B (stomach, adherent, top dose 20 µM)”, the AUC turned out to be 0.96 and the IC50 was greater than 20 µM.

Consider “RERF-LC-KJ (lung adenocarcinoma, adherent, top dose 20 µM)”, for which the AUC is 0.976 and the IC50 is greater than 20 µM.

Take “RERF-LC-MS (lung adenocarcinoma, adherent, top dose 20 µM)”: the AUC was determined as 0.98 and the IC50 was greater than 20 µM.

Turning to “RERF-LC-Sq1 (lung squamous cell carcinoma, adherent, top dose 20 µM)”, the AUC was found to be 0.946 and the half-inhibitory concentration (IC50) is greater than 20 µM.

Consider “RF-48 (stomach, adherent, top dose 20 µM)”, for which the AUC came out at 0.949 and the IC50 was greater than 20 µM.

Turning to “RH-1 (rhabdomyosarcoma, adherent, top dose 20 µM)”, the AUC was 0.967 and the IC50 is greater than 20 µM.

Consider “RH-18 (rhabdomyosarcoma, adherent, top dose 20 µM)”, for which the AUC was found to be 0.978 and the IC50 was greater than 20 µM.

“RH-41 (rhabdomyosarcoma, adherent, top dose 20 µM)”: the AUC came out at 0.992 and the IC50 was greater than 20 µM.

Take RKN (ovary, adherent, top dose 20 µM): the AUC turned out to be 0.961 and the IC50 was greater than 20 µM.

As for “RKO (large intestine, adherent, top dose 20 µM)”, the AUC was found to be 0.981 and the IC50 is greater than 20 µM.

For “RL95-2 (endometrium, adherent, top dose 20 µM)”, the AUC worked out at 0.981 and the IC50 was greater than 20 µM.

As for “RL (B-cell lymphoma, suspension, top dose 20 µM)”, the AUC was 0.958 and the IC50 was greater than 20 µM.

Regarding RMG-I (ovary, adherent, top dose 20 µM), the AUC was 0.983 and the IC50 was greater than 20 µM.

“RO82-W-1 (thyroid, adherent, top dose 20 µM)”: the AUC turned out to be 0.968 and the IC50 was greater than 20 µM.

For the cell line “ROS-50 (B-cell leukaemia, suspension, top dose 20 µM)”, the AUC was 0.95 and the IC50 is greater than 20 µM.

Turning to “RPMI-2650 (head and neck, adherent, top dose 20 µM)”, the AUC amounted to 0.96 and the IC50 was greater than 20 µM.

On to “RPMI-6666 (Hodgkin lymphoma, suspension, top dose 20 µM)”, for which the AUC worked out at 0.9 and the IC50 is greater than 20 µM.

On to “RPMI-7951 (melanoma, adherent, top dose 20 µM)”, for which the AUC stood at 0.873 and the IC50 was determined as 18.2 µM.

With “RPMI-8226 (myeloma, suspension, top dose 20 µM)”, the AUC is 0.979 and the IC50 is greater than 20 µM.

On to “RPMI-8402 (T-cell lymphoblastic leukaemia, suspension, top dose 20 µM)”, for which the AUC was determined as 0.744 and the IC50 is 5.42 µM.

As for “RPMI-8866 (chronic myeloid leukaemia, suspension, top dose 20 µM)”, the AUC amounted to 0.984 and the IC50 was greater than 20 µM.

As for “RS4-11 (leukaemia, suspension, top dose 20 µM)”, the AUC worked out at 0.941 and the half-maximal inhibitory concentration (IC50) was greater than 20 µM.

With RT4 (bladder, adherent, top dose 20 µM), the AUC came out at 0.987 and the IC50 was greater than 20 µM.

Take “RT-112 (bladder, adherent, top dose 20 µM)”: the AUC turned out to be 0.982 and the half-inhibitory concentration (IC50) is greater than 20 µM.

On to “RVH-421 (melanoma, adherent, top dose 20 µM)”, for which the AUC turned out to be 0.947 and the IC50 is greater than 20 µM.

Take “RXF393 (kidney, adherent, top dose 20 µM)”: the AUC worked out at 0.876 and the IC50 is greater than 20 µM.

In the case of “Raji (Burkitt lymphoma, suspension, top dose 20 µM)”, the AUC is 0.985 and the IC50 is greater than 20 µM.

In the case of “Ramos-2G6-4C10 (Burkitt lymphoma, suspension, top dose 20 µM)”, the AUC came to 0.883 and the IC50 is 16 µM.

Turning to “SAS (head and neck, adherent, top dose 20 µM)”, the AUC was determined as 0.96 and the concentration for half-maximal inhibition (IC50) is greater than 20 µM.

As for “SAT (head and neck, adherent, top dose 20 µM)”, the AUC was found to be 0.968 and the IC50 was greater than 20 µM.

As to “SBC-1 (small cell lung carcinoma, suspension, top dose 20 µM)”, the AUC stood at 0.984 and the IC50 was greater than 20 µM.

Regarding “SBC-3 (small cell lung carcinoma, adherent, top dose 20 µM)”, the AUC came out at 0.947 and the IC50 is greater than 20 µM.

Turning to “SBC-5 (small cell lung carcinoma, adherent, top dose 20 µM)”, the AUC was determined as 0.993 and the IC50 is greater than 20 µM.

Take “SCC90 (head and neck, adherent, top dose 20 µM)”: the AUC is 0.824 and the IC50 turned out to be 19.3 µM.

Turning to “SCC-3 (B-cell lymphoma, suspension, top dose 20 µM)”, the AUC is 0.992 and the IC50 was greater than 20 µM.

For “SCC-4 (head and neck, adherent, top dose 20 µM)”, the AUC was 0.984 and the IC50 is greater than 20 µM.

As to “SCC-9 (head and neck, adherent, top dose 20 µM)”, the AUC came to 0.981 and the IC50 was greater than 20 µM.

As for “SCC-15 (head and neck, adherent, top dose 20 µM)”, the AUC is 0.98 and the IC50 was greater than 20 µM.

Regarding “SCC-25 (head and neck, adherent, top dose 20 µM)”, the AUC came to 0.984 and the concentration for half-maximal inhibition (IC50) is greater than 20 µM.

Take SCH (stomach, adherent, top dose 20 µM): the AUC worked out at 0.987 and the IC50 is greater than 20 µM.

In the case of “SF126 (glioma, adherent, top dose 20 µM)”, the AUC was found to be 0.96 and the IC50 is greater than 20 µM.

For “SF268 (glioma, adherent, top dose 20 µM)”, the AUC was 0.961 and the IC50 was greater than 20 µM.

Turning to “SF295 (glioma, adherent, top dose 20 µM)”, the AUC was determined as 0.959 and the IC50 was greater than 20 µM.

For the cell line “SF539 (glioma, adherent, top dose 20 µM)”, the AUC was determined as 0.959 and the IC50 is greater than 20 µM.

For “SH-4 (melanoma, adherent, top dose 20 µM)”, the AUC stood at 0.955 and the IC50 is greater than 20 µM.

On to “SHP-77 (small cell lung carcinoma, semi-adherent, top dose 20 µM)”, for which the AUC amounted to 0.937 and the IC50 is greater than 20 µM.

With “SIG-M5 (acute myeloid leukaemia, suspension, top dose 20 µM)”, the AUC stood at 0.535 and the IC50 is 1.52 µM.

Regarding “SIMA (neuroblastoma, adherent, top dose 20 µM)”, the AUC amounted to 0.932 and the IC50 is greater than 20 µM.

With SISO (cervix, adherent, top dose 20 µM), the AUC was determined as 0.959 and the IC50 is greater than 20 µM.

“SJRH30 (rhabdomyosarcoma, adherent, top dose 20 µM)”: the AUC turned out to be 0.944 and the IC50 is greater than 20 µM.

Consider SJSA-1 (bone, adherent, top dose 20 µM), for which the AUC turned out to be 0.976 and the IC50 is greater than 20 µM.

Consider “SK-CO-1 (large intestine, adherent, top dose 20 µM)”, for which the AUC turned out to be 0.97 and the IC50 was greater than 20 µM.

On to “SK-ES-1 (Ewing sarcoma, semi-adherent, top dose 20 µM)”, for which the AUC was 0.971 and the IC50 is greater than 20 µM.

In the case of “SK-GT-4 (oesophagus, adherent, top dose 20 µM)”, the AUC turned out to be 0.98 and the IC50 is greater than 20 µM.

With “SK-HEP-1 (liver, adherent, top dose 20 µM)”, the AUC worked out at 0.989 and the IC50 was greater than 20 µM.

Consider “SK-LMS-1 (soft tissue, adherent, top dose 20 µM)”, for which the AUC was determined as 0.897 and the IC50 was greater than 20 µM.

Turning to “SK-LU-1 (lung adenocarcinoma, adherent, top dose 20 µM)”, the AUC worked out at 0.98 and the IC50 was greater than 20 µM.

Turning to “SK-MEL-1 (melanoma, suspension, top dose 20 µM)”, the AUC came to 0.993 and the IC50 was greater than 20 µM.

For the cell line “SK-MEL-2 (melanoma, adherent, top dose 20 µM)”, the AUC was 0.981 and the IC50 was greater than 20 µM.

As for “SK-MEL-3 (melanoma, adherent, top dose 20 µM)”, the AUC came to 0.957 and the IC50 was greater than 20 µM.

As for “SK-MEL-5 (melanoma, adherent, top dose 20 µM)”, the AUC was determined as 0.974 and the IC50 is greater than 20 µM.

In the case of “SK-MEL-24 (melanoma, adherent, top dose 20 µM)”, the AUC amounted to 0.983 and the IC50 was greater than 20 µM.

For orientation: IC50 means the midpoint of a concentration-inhibition curve.

Source of the values: the supplement of paper PMC4967469.
